Measured values as given in paper PMC10726135.
This is one part of the list. At the low end of the ranking the order means little. The protein was read in a cell extract, so binding may be indirect.

biological target: T1, HNF4alpha8 (COS-7 nuclear extract) (UniProt P41235-5); test: protein-binding microarray; settings: COS-7 nuclear extract on double-stranded Agilent 4x180k PBM; binding buffer, salt, pH and temperature not given; high values mean tight binding; double strand, one strand shown; sequences stand for … in …GCCTAGGGAGATTAGAGTATCGGTCGA
T1 sequence: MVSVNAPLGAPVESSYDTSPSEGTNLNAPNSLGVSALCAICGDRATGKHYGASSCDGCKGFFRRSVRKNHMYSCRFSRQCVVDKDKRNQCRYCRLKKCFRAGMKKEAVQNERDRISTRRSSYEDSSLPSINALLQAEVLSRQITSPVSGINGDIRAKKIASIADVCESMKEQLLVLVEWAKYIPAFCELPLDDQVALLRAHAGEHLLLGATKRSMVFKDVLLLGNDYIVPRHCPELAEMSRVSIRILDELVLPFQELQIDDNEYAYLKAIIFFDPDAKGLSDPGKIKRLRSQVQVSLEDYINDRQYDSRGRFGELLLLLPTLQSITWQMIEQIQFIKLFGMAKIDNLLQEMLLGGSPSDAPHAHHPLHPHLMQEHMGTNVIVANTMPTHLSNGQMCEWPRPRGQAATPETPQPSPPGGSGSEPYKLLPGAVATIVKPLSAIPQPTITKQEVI

| Sequence | binding signal (log2 normalized intensity) |
| --- | --- |
| TAAAACGTGGTTCAGGGAGCGAATAAATAC | -1.18 |
| CAACTGGAAGTCCAGCATTCTTTTCCCCAT | 1.98 |
| GCCCTTTATCTCCTCTCTTCTCACTTTTTA | 1.48 |
| CTAAGATCCTAGGAGAGCCAAATCTTAAGG | -1.3 |
| CCTCAGAACCATTTGTGAGGATGGGCAGTC | 0.768 |
| GCAGGGAGGACACAGTGTTATTTGCTGAGG | -1.22 |
| CACAACAGAAAGCAAGAGCACAAGAACAAA | -1.38 |
| TAGGGAAAAGATAAGGCGTAGTTCAGAGAA | -0.929 |
| CAGAGGCCAGAAAAGCAAACCGAGATCAAG | -1.41 |
| AAGCGTGCACCCCAGGTACGGAGGACAGCC | -1.26 |
| CAAGATTCCTTGAGCATTCCAAAAAGCTTT | -1.34 |
| GCACCAATGATCAAAGAGACACAATCCCTA | -1.35 |
| AAGTGTCTTGGAGAGAAAAAATCAGAGAGC | -1.24 |
| TTAGCAGATAAATCTAGGCCTAGGCATTGA | -0.168 |
| TTTGGAATTGTGTCACTCCCCAGGAATGTG | 2.09 |
| GAGGCTGACATCTCTCTGGCCTGTGGGGAG | -1.37 |
| TCATGTGAAGACACTGAGGAAAAGCTGTCT | -1 |
| ACTTAACTACTACACTAAAAAAAAAAAAAT | -1.41 |
| ACTAGCAGATTCTGTGTGGTAAAAGCACTG | -1.12 |
| ATCGCCTGAATGACCACATGCCCTCAGTAC | 2.65 |
| CTATAGTTTCTGTTTTGATCTTAAGATGAT | 1.74 |
| TGTGGGAGGGAAGGAGCCTAACTTTGATAG | -1.41 |
| ACAGACAGACATTCAGAAACTGTCACTTAA | -1.32 |
| TTTACATAACCTGCCCAAAGTGGGGCTGCT | -1.21 |

| Sequence | binding signal (log2 normalized intensity) |
| --- | --- |
| GCGGGTGCAGCTTCCACCTGCAAGGAAATA | -1.27 |
| TCAGCACTGAGAGATTACATTTGACTGAGG | -1.18 |
| CCGTGCCCCCTTTTGCTTTCCGTTAGGCTA | 1.13 |
| TCACCTTTGCCCTGTCAGTCTCTCAATGAT | 4.01 |
| AAACGCTCCCAATGGCTCCACCAGTCAGTC | -1.26 |
| GGATAACCTTCCAGACAGAGAGGTCAGCAA | 1.2 |
| GAGAATGCTAGACAAGGGAATTACTCTTCT | -1.3 |
| TAGAGCAGCAGTAGGCTCTCGGGCCAGCTG | -1.36 |
| CTTGTAAGCCACAGTACAAAGGTGAGCTTT | 4.3 |
| ATCCTGCAGTTCCTGATCTTTGACCTGGAG | 6.23 |
| GTTTGTCTTACTGTGTTGTCGTATTTACTC | 1.36 |
| TGGGACAATGAAGCCTAAATGATAAGGGTT | -0.805 |
| GCATTGCCGTTCAGGGCCACGGGAAAACCT | -1.16 |
| ATTCATTCACCTTTCGCCCTTTGTCCTATG | 5.93 |
| GACACGGGCAGGTGAGAGGGCTCTGTCTGC | -1.3 |
| GAAAGTACAGTGATGTTTGTCAAATGCTTC | 0.496 |
| ATTCTGTACTTCAACCAGGTTCTCTTTACT | 0.76 |
| CCTTTGTGTGAATCGACCTTTAGCACCGTA | 7.24 |
| CACCATTAGACTCTGCCCTCCTTAAGACCT | 2.24 |
| TATTATATTGTGGGTTCTTGCCCTTTGGTC | 6.8 |
| ACCTGCCTCTCTCTCATGTCTGTACTGGGA | 1.6 |
| AAGTAGCCTGGTCAGGAACAAAGGTCACAG | 5.98 |
| AAACTGGAGGCCGCGACAAGCGTCGCTGAG | -1.38 |
| TTCTGTCCTCTCAAAGTCCACCCGGCCAGC | 4.52 |

| Sequence | binding signal (log2 normalized intensity) |
| --- | --- |
| TCCCTTTGATATTTATCAAGATGAACTTTG | 5.51 |
| TCTTCAGGCTGGGGCCCCATCGACCTTTGC | 7.4 |
| AAACAAAAGCTGCTTCTGTAAAACTCCTGT | -1.26 |
| GAGCCTGCAAGGGAGACCAGGAAAGTGAAT | -1.24 |
| AGATAAGAAAGAATCAGCACAAGAATGCTA | -1.21 |
| GTCTGCTACCATCAGATAAGCTCAGGAGAA | -1.4 |
| CAGATACCCAGGCATATCCAACCTTCTCCC | -1.12 |
| ACTTGTCTCACATCTGATAGCTAAACCAGA | -1.24 |
| AAGGACTGTTGGACCTCGAACTCCAGTGGG | 3.34 |
| GTGTGCGTGGGTGGGAAATCATTCCAGCTA | -1.31 |
| GCAGGTTCTCAGGCCAATCATATCTCCCAG | -1.18 |
| GAAAAGACAGGGTAATTTACAGAACTCTTC | -1.39 |
| CTAACCTTTGACCATCCACGGATGCATGAT | 3.91 |
| CTGGCCTCCTGCGGTCCGGACTCTGCCCCA | 5.15 |
| TTAAACTGCCGCGCCACTGCGTCCAGCCAC | -1.21 |
| GTCTAGCTTGTTCTCTCCCCCAACCCCACC | 5.46 |
| CGGCGGGGTCACGTGGGGCCGGTACAAAAG | 1.71 |
| TGCTCTCTGTCCCTGCACCCTACCCCCATA | 4.73 |
| GCCTGCATGGGCTGTCACCTTTACCCCCAC | 5.65 |
| ATATGTGCCTGCCTTATACAACCTCTGTAA | 1.41 |
| AGAATGAGACCTGCTAGGCTGCATTCTCTG | -1.23 |
| TACTGCCTCAGGGAGGAGTTGTCATCATAA | -0.42 |
| TCTTAGAAGATAAAGTGTCTCCCTCTGCAG | 1.07 |
| TCTATCAAAGGAGAAAAAGTCAACACTTAG | -1.33 |

| Sequence | binding signal (log2 normalized intensity) |
| --- | --- |
| CAGCAGTAGGCTCTCGGGCCAGCTGTACAA | -1.31 |
| CTGAGGAAGTGCTGACCTTTGGTCTAAACC | 6.93 |
| ACTGCTCCCTCTGCTCCCCTGGCCTCACCC | 2.87 |
| AGTTGGAATTTCAGAAGCAGGTCAATAGGG | 0.429 |
| AGCGGAGCATCCCTCGGGCCGGGAAACGCC | -1.39 |
| TGACTATAGCGTCTCCTGGCCTCTGTGAAG | -1.38 |
| ACTGCAAGGCAAACACTCAAGGTCCAAACA | 2.43 |
| TCCATTTCTAGACACCAAACACAGTTGCTG | -1.37 |
| TCGACCTTTGTGGGCTTCAGACATTGCAAA | 1.17 |
| TGCCCTTTGCCCTCACTGGTAGAAGGCAGC | 5.22 |
| TTGCCCTTCTTGGATGCCCTTCCCTAACCC | 3.04 |
| AGCGTACGCAGGGCGGCCGGCGGAGCGCCG | -1.42 |
| CCATGCAAATTGCTGACTTTCTGTGTCTTG | 0.802 |
| TACATAACCACCACTGGGCAATTGGTTTCC | -0.698 |
| TGACCTTGGACTCTGCCCTTGGCCTACTTA | 5.04 |
| GTAGTTACCTGATGAAGCAATAGGAATCAC | -1.23 |
| GGGCGTGAACTGTGACTTTTATCTTAGGTA | 1.52 |
| CTATCAGGAAACTCTTTCCTAACAGTGAAT | -1.16 |
| GCTGCCTTTTAGCTCCATACTTCAAGAAGT | -1.11 |
| ATGTGACCTTCACCCTGCTGTAAATAAAAT | 2.75 |
| CTGCCTGCTTGGCCTCTCCACTTGGGTATC | -0.182 |
